# Reference: PubChem BioAssay AID624296 (National Center for Advancing Translational Sciences (NCATS), 2012)
# The whole screen tested about 350,000 compounds, of which about 9,900 (2.8%) were called active. This list was built around the results that the source calls inconclusive (neither active nor inactive); the mix of calls is not that of the screen. Calls follow the shape of the dose curve; as a rule, active = well fitted activation curve with a large enough effect; inconclusive = small, poorly fitted or top-dose-only effect; inactive = no such curve, though single readings can be large or run the other way. Potencies of inconclusive entries are left out as doubtful fits. Where a structure was tested more than once in an assay, its records may differ in their call.
# Experiment: A quantitative high throughput screen for small molecules that induce DNA re-replication in MCF 10a normal breast cells. Also: nearly all actives have a fitted effect of over 50% in size. As to activity, positive = re-replication: % of control where 0% means no effect.
# Details: MCF 10A DNA re-replication, Hoechst nuclear intensity, 48 h; activity, positive = re-replication: at 46.1 µM (top of the series)
# Potency is read from the fitted curve at half-maximal effect; tags tell the direction and shape of the fitted curve.
Compound,"activity, positive = re-replication",Potency
COC(=O)c1cn(Cc2ccccc2C)nn1,inactive: -3.16%,–
O=C1/C(=C/c2ccccn2)SC(=S)N1c1cccc(O)c1,–,"inconclusive [activator, partial curve, poor fit]"
Cc1ccc(-c2cc[n+](Cc3ccccc3)cc2)cc1,inactive: 15.6%,–
CCc1cc(=O)oc2cc(C)cc(OCC(=O)N3CCC[C@@H]3C(=O)O)c12,–,"inconclusive [activator, full curve]"
Cc1cc2nc(-c3ccccc3O)[nH]c2cc1C,–,"inconclusive [activator, single point]"
Cn1c(-c2ccc(C(F)(F)F)cc2)cc2onc(-c3ccccc3)c2c1=O,inconclusive: -23.2% [activator],–
O=P(COCCOCCOCP(=O)(c1ccccc1)c1ccccc1)(c1ccccc1)c1ccccc1,–,"inconclusive [activator, single point]"
COc1cccc(Cn2c(N)c(C#N)c3nc4ccccc4nc32)c1OC,–,"inconclusive [activator, full curve, poor fit]"
Cc1ccc(S(=O)(=O)N2CCN(c3ccccc3)CC2)c(C)c1,–,"inconclusive [activator, partial curve, poor fit]"
Cc1cc(C)c(C)c(OCCCCn2cnc3ccccc3c2=O)c1,–,"inconclusive [activator, single point]"
CC(C)(C)c1ccc(OCC(=O)N/N=C/c2ccc(N3CCOCC3)cc2)cc1,–,"inconclusive [activator, single point]"
CCc1cccc(C)c1NC(=O)C1CC=CCC1C(=O)O (stereo not drawn),–,"inconclusive [activator, partial curve, poor fit]"
CCCCCCC(=O)Nc1nc(C)c(-c2csc(Nc3ccc(Cl)cc3)n2)s1,–,"inconclusive [activator, single point]"
CCCCOC(=O)C1C2CCC(O2)C1C(=O)OCC (stereo not drawn),inactive: -4.22%,–
Cc1ccc(NC(=S)c2nc3ccccc3[nH]2)cc1,–,"inconclusive [activator, partial curve, poor fit]"
CC(/C=C/c1ccco1)=N/NC(=O)c1ccccc1Cl,–,"inconclusive [activator, partial curve, poor fit]"
CC(=O)Nc1ccc(S(=O)(=O)N(C)c2ccc(OCC(=O)OCC(=O)Nc3ccc(OC(F)F)cc3)cc2)cc1,–,"inconclusive [activator, single point]"
Oc1ccc(/C=N/N2CCN(C3c4ccccc4-c4ccccc43)CC2)cc1,–,"inconclusive [activator, single point]"
Cc1c(C(=O)NNC(=O)c2cccnc2)cccc1[N+](=O)[O-],inactive: -6.69%,–
COc1cc(/C=C2\SC(=O)NC2=O)ccc1Oc1cnccn1,–,"inconclusive [activator, single point]"
O=C(N/N=C/c1c[nH]c2ccc(Br)cc12)c1ccc2c(c1)OCO2,–,"inconclusive [activator, single point]"
c1ccc(COc2ccc(OCCN3CCCC3)cc2)cc1,–,"inconclusive [activator, full curve, poor fit]"
Cc1oc2c(F)c(F)c(F)c(F)c2c1S(=O)(=O)Nc1cccc(C(F)(F)F)c1,–,active: 16.4 µM

Compound,"activity, positive = re-replication",Potency
CCOc1ccccc1NC(=O)c1ccccc1N(C)S(C)(=O)=O,inactive: -5.63%,–
Cn1c(C(=O)N2CCN(c3nc4ccccc4s3)CC2)cc2sccc21,inactive: 1.01%,–
COc1ccc(Cl)cc1Nc1cc(C)nc2ccccc12,–,"inconclusive [activator, full curve, poor fit]"
Cc1ccc(-c2ccc(=O)n(Cc3cccc(Br)c3)n2)cc1,–,"inconclusive [activator, single point]"
COc1ccccc1N(CC(=O)N1CCN(c2ccc(F)cc2)CC1)S(=O)(=O)c1ccc(C)cc1,–,"inconclusive [activator, partial curve, poor fit]"
Cc1nc2cc(-n3ccc(=O)cc3)ccc2n1-c1ccccc1,–,"inconclusive [activator, single point]"
C=C(C)Cc1c(C)c(C#N)c2nc3ccccc3n2c1N1CCCCC1,–,"inconclusive [activator, full curve, poor fit]"
Cc1cccc(Oc2nc3ccccn3c(=O)c2/C=C(\C#N)C(=O)NC2CCS(=O)(=O)C2)c1C (stereo not drawn),–,"inconclusive [activator, partial curve, poor fit]"
O=C(Nc1nc(-c2ccccc2)cs1)c1ccccc1F,–,"inconclusive [activator, partial curve, poor fit]"
C=C(CC)C(=O)c1ccc(OCC(=O)O)c(Cl)c1Cl,inactive: 4.27% [at 0.843 µM],active: 18.8 µM
CC(C)(C)c1nnc2sc(SCC(=O)c3ccccc3)nn2c1=O,–,"inconclusive [activator, single point]"
COc1cccc(C(=O)Nc2ncc3c(n2)CC(c2ccc(OC)cc2OC)CC3=O)c1 (stereo not drawn),–,active: 2.31 µM
COc1ccc(-c2cc(C(=O)N3CCOCC3)no2)cc1OC,inactive: 0.435%,–
COc1ccc2[nH]c(O)c(N=O)c2c1,inactive: -9.25%,–
CC(NC(=O)CNC(=S)N(Cc1cccs1)C1CCCC1)c1ccccc1 (stereo not drawn),–,"inconclusive [activator, partial curve, poor fit]"
CCC(Sc1nncn1C)C(=O)Nc1nnc(-c2ccccc2Cl)s1 (stereo not drawn),inactive: 1.04%,–
Cc1ccc(-c2c(C#N)c(N)nc3c2CCCC3)s1,–,"inconclusive [activator, full curve]"
COc1cccc2cc(C(C)=O)c(=O)oc12,–,"inconclusive [activator, full curve, poor fit]"
COc1ccc(-n2ccnc2SCC(=O)NCc2ccc(F)cc2)c(OC)c1,–,"inconclusive [activator, partial curve, poor fit]"
COc1ccc(NC(=O)CCc2ccc(OC)c(OC)c2)cn1,inactive: -2.53%,–
CC(C(=O)Nc1cccc(S(=O)(=O)N2CCOCC2)c1)N1CCN(C/C=C/c2ccccc2)CC1 (stereo not drawn),–,"inconclusive [activator, partial curve, poor fit]"
CC(C)(C)c1ccc(S(=O)(=O)N2CCN(CC(O)CN3CCOCC3)CC2)cc1 (stereo not drawn),–,"inconclusive [activator, full curve]"
CCC(C)NC(=O)c1ccccc1NC(=O)c1ccc(CSc2ccccc2)cc1 (stereo not drawn),–,"inconclusive [activator, partial curve]"

Compound,"activity, positive = re-replication",Potency
CCN(N=O)c1ccc(C=C2C=Cc3ccccc32)cc1,–,"inconclusive [activator, partial curve, poor fit]"
O=C(/C=C/c1cccc([N+](=O)[O-])c1)c1ccc2c(c1)OCCO2,–,"inconclusive [activator, single point]"
CN(C)c1ccc(NC(=O)c2ccc(COc3cccc(Cl)c3)o2)cc1,–,"inconclusive [activator, partial curve]"
C[C@H](NC(=O)COc1ccccc1)C(=O)OCC(=O)c1cc2ccccc2o1,–,"inconclusive [activator, single point]"
N#Cc1c(N)nc2c(c1-c1cccc(O)c1)CCCCCC2,inactive: -1.49%,–
NS(=O)(=O)c1ccc(NC(=O)c2cccc3cc4ccccc4nc23)cc1,–,"inconclusive [activator, full curve, poor fit]"
OCC1(Cc2cccc(F)c2)CCN(Cc2cccc3nccnc23)CC1,inactive: -8.99%,–
Cn1c(SCC(=O)Nc2cccc(F)c2)nc2c([nH]c3ccccc32)c1=O,–,"inconclusive [activator, full curve]"
CCOc1ccc(CN(C(=O)c2ccccn2)c2ccc(OC)c(Cl)c2)cc1,–,active: 23.1 µM
O=C(NCc1ccccc1)c1cccc(NC(=O)C2CCCCC2)c1,–,"inconclusive [activator, single point]"
O=C(N/N=C\c1ccc(-c2ccccc2[N+](=O)[O-])o1)C1COc2ccccc2O1 (stereo not drawn),inactive: 2.17%,–
COC(=O)c1ccc(NC(=O)c2cc(Cl)ccc2OC)cc1,–,"inconclusive [activator, partial curve, poor fit]"
COc1ccccc1CN(Cc1cc2cc(C)ccc2[nH]c1=O)Cc1nnnn1Cc1ccco1,inactive: 21.9%,–
CCOC(=O)CC1=C(C(=O)OCC)C(c2cccs2)C(C#N)=C(N)O1 (stereo not drawn),inactive: -6.79%,–
Cc1ccc(C)c(CN2CCC(CNC(=O)Nc3ccc(C)c(C)c3)CC2)c1,–,"inconclusive [activator, single point]"
CCOC(=O)c1c(NC(=O)/C=C/C(=O)O)sc(C)c1-c1ccc(C(C)(C)C)cc1,–,"inconclusive [activator, full curve, poor fit]"
CC(=O)c1cccc(NC(=O)CCNS(=O)(=O)c2cccc(C(C)=O)c2)c1,–,"inconclusive [activator, single point]"
Cc1c(Cl)cccc1NC(=S)N1CCCCCC1,inactive: 9.96%,–
COc1ccc(C(CC(=O)N2CCN(c3ccccc3)CC2)c2c(OC)cc(OC)c3ccc(=O)oc23)cc1 (stereo not drawn),–,"inconclusive [activator, single point]"
Oc1ccc(NCc2cccc(OCc3ccc(F)cc3)c2)cc1,–,"inconclusive [activator, single point]"
COc1ccccc1NC(=O)Nc1nc(CC(=O)N2CCN(c3ccccc3F)CC2)cs1,–,"inconclusive [activator, partial curve, poor fit]"
